Data on 56 variants can be found in the RNAGym collection of RNA variant scans (doi:10.7554/elife.90254).

Read counts are not given, so values of variants with three or more changes are uncertain.

B1: LINE1-mini (parent)
chain: GGCAGAGCUCAACACAGCGUGGCAAAGUGGCUGUGGCUAGACUGCC

The variants in the data set derive from B1. Nature of the data set: self-cleavage, relative activity (ratio to wild type); higher = more cleavage; in vitro, sequencing; the parent is a self-cleaving ribozyme.
For the variant GGCAUAGCUCAACACAAAAUGGCAAAGUUGCUGUGGCUAGACUGCC, the self-cleavage was found to be 0.05.
Then GGCAUAGCUCAACACAUCGUGGCAAAGUGUCUGUGGCUAGAUUGCC, with 0.03; and GGCAUAUCUCAACACAGAGUGGCAAAGUGGCUGUGGCUACACUGCC, with 0.08; and GGCAUAGCUCAACACAGCGUGGCAAAGUGGAAGUGGCUAUACUGCC, with 0.02.
Then GGCAUAGCUCAACACAGAGUGGCAAAGUGGCUGUUGCAAGACUGCC, with 0.03.
Then GGCAUAGCUCAACACAGCGUGGCAAAGUGGCUGUGGCUAGAGAGCC, with 0.05.
Regarding GGCAUAGCUCAACACAGCGUGGUAAAGUGGUUUUGGCUAGACUGCC, the self-cleavage came to 0.07.
Then GGCAUACCUCAACAUAGCGUGGCAUAGUGGCCGUGGCUAGACCGCC, with 0.01; and GGCAUAGCUCAACACACCGUGGCAAAGUGCCUGUGGCUAGAUUUCC, with 0.06; and GGCAUAGCUCAACACAGAGUGUCAAAGUGGCUGUGGCUAGACUUCC, with 0.05.
The result for GGCAUAGCUCAACACAGUGUGGCAAAGUGGCUGUGGCUCGACUGCC reads 0.05; that for GGCAUAGCUCAACACAGCGUGGAAAAGUUGCUGUGGCUAGACUGCC, 0.03.
Then GGCAUAGCUCAACACAACGUGGCAAAGUGGCCGUGGCUAGACUGCC, with 0.06; and GGCAUAGCUCAACACAGCCUGGCAAAUUGGCUGUGGCUAGACUGCC, with 0.03.
On to GGCAUAGCUCAACACAGCGUGGAAAAGUGGCUGUGGCUAGUCUGCC, for which the self-cleavage stood at 0.12.
Then GGCAUAGCUCAACACAGAAUGGCAAAGUGGCUGUGGCUAGACUGCC, with 0.02.
Then GGCAUAGCUCAACACACCGUGGCAAAGUGGCUGUGGCUAGUCUGCC, with 0.03.
Then GGCAUAGCUCAACACAGGGUGGCAAAGUUGCUGUGGCUAGAAUGCC, with 0.07; and GGCAUAUCUCAACACAGCGUGGCAAAGUGGCUGUGGCUAGAGUGCC, with 0.01.
In the case of GGCAUAGCUCAACACAACUUGGCAAAGUGGCUGUGGCUAAAAUGCC, the self-cleavage worked out at 0.05.
The result for GGCAUAGCUCAACACAUCGUGGCAAAGUGGCUGUGGCUAUACCGCC reads 0.04; that for GGCAUAUCUCAACACAGCGUGGCACAGUGGCUGUGGCUAGACAGCC, 0.13; that for GGCAUAGCUCAACACAGCGUGGAAAAGUGGCUGUGUCUAGACUGCC, 0.06.
The result for GGCAUAUCUCAACACAGCGUGGCAAAGUGGCUGUGGCUAAACUGCC reads 0.38; that for GGCAUAGCUCAACACAGUGUGGCAAAAUGGCUGUAGCUAGACUGCC, 0.09; that for GGCAUAACUCAACACAGAGUGGCAAAGUGGCUGUGGCUAGACUGCC, 0.04.
The result for GGCAUAGCUCAACACAGCAUGUCAAAGUGGCUGUGGCUAGACUGCC reads 0.05.
Turning to GGCAUAGCUCAACACAUCGUGGCAAAGCGGCUGUGGCUAGACUGCC, the self-cleavage was 0.06.
Then GGCAUACCGCAACACAGUGUGGCCAAGUGGUUGUUGCUAGACUGCC, with 0.05.
In the case of GGCAUAGCUCAACACAGGGUGGCAAAGUGGUUGUGGCUAGACCGGC, the self-cleavage was determined as 0.07.
Then GGCAUAGCUCAACACAGCGUGGCAAAGUGGCUGUGGCUAGAGUGUC, with 0.06; and GGCAUAGCUCAACACAGCAUGUCCAAGUGACCGUGGCUAGACUGGC, with 0.02.
The result for GGCAUAUCGCAACACAGCGUGGCAAACUGGCUGUGUCAAGACUGCC reads 0.02; that for GGCAUAUCUCAACACAGCGUGGCAAGGUGGCUGUGGCCAGACUGCC, 0.36; that for GGCAUAGCUCAACACAUCGUUGCAAAGUGGCUGUGGCUAGACUGCC, 0.04.
GGCAUAUCUCAACACAGCGUGGCAAAGUGGCUGUCGCUAGACUGCC: the self-cleavage was determined as 0.13.
Then GGCAUACCUCAACACAGCGUUGCCAAGUGGCUGUGGCUAGACUGCC, with 0.11; and GGCAUAUCUCUACACAGCGUUGCAAAGUGGCUGUGGCUAGACUGCC, with 0.02.
The result for GGCAUAGCUCAACACAGAGUGGCAAAGUGGUCGUGGCUAGACUGCC reads 0.02; that for GGCAUAGCUCAACACAGAGCGGCAAAGUGGCUGUGGCUAGACUGCC, 0.09.
As for GGCAUAGCUCAACACAGCAUUGCAAAGUGGCUGUGGCUAGACUGCC, the self-cleavage amounted to 0.04.
Then GGCAUAACUAAACACAGCGUGGCAAAGUGGCUGUGGCAAGCCUGCC, with 0.04; and GGCAUAGCUCAACACAGUGUGGCAAAUUGGCUGUGGCUAACCUGCC, with 0.01; and GGCAUAUCUCAACACAUCGUGGCAAAGUGGCUGUGGCUAGACUGCC, with 0.05.
As for GGCAUACCUCAACCCAGCGUGGCAAAGUGGCUGUGGUUAGACUGCC, the self-cleavage worked out at 0.03.
In the case of GGCAUAGCUCAACACAGCGUGGAAAACUGGCUGUGGCUAGAUUGCC, the self-cleavage stood at 0.02.
For the variant GGCAUAUCUCAACACACCGUGGCAAAGUGGCUGUGGCUUGACUGCC, the self-cleavage amounted to 0.15.
Then GGCAUAGCUCAACACAGCGUGGGAAAGUGGCUGUGGCUAAACUGCC, with 0.01.
The result for GGCAUAGCUCAACACAGCGUGGCAAAGUGGCUGUGGCUAGAGUGCU reads 0.02; that for GGCAUAGCUCAACACAGCCUGGCACAGUGGCUGUGGCUAGACUGCC, 0.04; that for GGCAUAGCUCAACACAGUGUGGCAAAGUGGAUGUGGCUAGACUGCC, 0.02.
The result for GGCAUAGCUCAACACACCGUGACAAAGUGGCUGUGGCUAGAGUGCG reads 0.05; that for GGCAUAUCUCAACACAGCGUGGCAAAGUGGUUGUGGCAAGACUGCC, 0.04.
For the variant GGCAUAGCUCAACACAGCGUGGCAAAGUGGUUGUGGCUAGGCUGCC, the self-cleavage was 0.07.
For GGCAUACCUCAACACAGCGUGGCACAGUGGCUGUGGCUAGACUGCC, the self-cleavage came to 0.02.
Then GGCAUAGCUCAACACAGCGUGGGAAAGUGGCUGUGGCUAGACUGCG, with 0.2.
